Source: paper PMC13083723 (Patterns, 2026)
The whole screen tested about 5,400 compounds, of which about 190 (3.5%) showed an effect of 50% or more. The list shows a part of the results. Residues, ends and D or L forms follow the SMILES beside them.

Each compound was assayed on Vero-E6 (assay: primary screen, phospholipidosis by LipidTOX staining; higher = more effect of the substance). Conditions: 10 µM.
In short: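 Single-concentration screen at 10 μM, with DMSO 0.1 v/v % and amiodarone 10 μM as controls. Read-out is LipidTOX Red phospholipid staining, which tolerates aldehyde fixation, in Vero-E6 cells.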

Structure (SMILES)	result_ITMP
OC[C@H]1O[C@@H](O[C@@H]2[C@@H](CO)O[C@](O)(CO)[C@H]2O)[C@H](O)[C@@H](O)[C@H]1O	-3.22%
Cc1ccc(C(=O)Nc2cccc(C(F)(F)F)c2)cc1Nc1nc(-c2cccnc2)nc2c1cnn2C	-4.6%
NC(=O)C(c1ccccc1)(c1ccc(F)cc1)c1ccc(F)cc1	-0.04%
Nc1ccn([C@H]2CO[C@@H](CO)S2)c(=O)n1	-0.01%
Cc1c(N)cccc1Cn1ccc(OCCc2cccs2)cc1=O	-2.44%
COc1ccc(-c2cc(=O)c3c(OC)c(OC)c(OC)c(OC)c3o2)cc1OC	-2.5%
c1ccc(Oc2nc(NC3CCCCC3)c3nc[nH]c3n2)cc1	-2.48%
Cc1cccc(-c2nn3c(c2-c2ccnc4ccc(C(N)=O)cc24)CCC3)n1	-5.5%
O=c1n(Cl)c(=O)n(Cl)c(=O)n1Cl	-3.7%
O=C(Nc1cccnc1)N1CCC(Cc2cccc(Oc3ccc(C(F)(F)F)cn3)c2)CC1	-6.14%
O=C(Nc1ccc([N+](=O)[O-])cc1Cl)c1cc(Cl)ccc1O	-4.22%
CCOc1ccc(Cc2nccc3cc(OCC)c(OCC)cc23)cc1OCC	0.61%
NC(=O)c1cc(N2CC2)c([N+](=O)[O-])cc1[N+](=O)[O-]	2.87%
Cn1cc(C2=C(c3cn(C4CCN(Cc5ccccn5)CC4)c4ccccc34)C(=O)NC2=O)c2ccccc21	-1.87%
Cc1cc(C)nc(NS(=O)(=O)c2ccc(NC(=S)NC(=O)COc3ccc(Br)cc3Cl)cc2)n1	-1.97%
CN1C(C(=O)Nc2ccccn2)=C(O)c2sc(Cl)cc2S1(=O)=O	-1.16%
CC12CC3CC(C)(C1)CC(N)(C3)C2	13.1%
N#Cc1ncccn1	-5.87%
Cc1ccc(CNc2ncnc3ccc(-c4ccc(CO)o4)cc23)o1	-5.86%
Cc1[nH]c(/C=C2\C(=O)Nc3ccc(F)cc32)c(C)c1C(=O)NCCN1CCCC1	11.1%
NC[C@H]1O[C@H](OC2[C@@H](N)C[C@@H](N)[C@H](O[C@H]3O[C@H](CO)[C@@H](O)[C@H](N)[C@H]3O)[C@H]2O)[C@H](O)[C@@H](O)[C@@H]1O (some centres unmarked)	-2.05%

Structure (SMILES)	result_ITMP
Cn1nnnc1SCC1=C(C(=O)[O-])N2C(=O)[C@@H](NC(=O)[C@H](O)c3ccccc3)[C@H]2SC1	-1.4%
O=C(c1cc(C2CC2)on1)N(C1CCCCC1)C1CCCCC1	0.99%
COc1ccc(-c2cc(=O)c3c(OC)c(OC)c(OC)c(OC)c3o2)cc1	-5.65%
CCS(=O)(=O)N1CCN(c2ccc(Nc3ncc(C(N)=O)c(NC4CC4)n3)cc2)CC1	1.28%
CCN1CCN(c2ccc(C(C)(C)NC(=O)c3cc4[nH]c5ccccc5c(=O)c4cc3F)cn2)CC1	7.92%
CC(C)C(=O)c1c(C(C)C)nn2ccccc12	-2.04%
Nc1nc2c(sc(=O)n2[C@@H]2O[C@H](CO)[C@@H](O)[C@H]2O)c(=O)[nH]1	-8.78%
CC(C)NCC(O)COc1cccc2[nH]ccc12 (centres unmarked)	-1.97%
Cn1c(=O)c2c(ncn2CCOC(=O)C(C)(C)Oc2ccc(Cl)cc2)n(C)c1=O	-1.74%
COP(=O)(OC)OC(c1ccc(Cl)cc1)P(=O)(OC)OC (centres unmarked)	1.09%
CC(CN(C)C)CN1c2ccccc2CCc2ccccc21 (centres unmarked)	34.6%
CCCC(O)C(CC)CO (centres unmarked)	-4.8%
Cn1c(N2CCCCS2(=O)=O)nc(C(=O)NCc2ccc(F)cc2)c(O)c1=O	-1.64%
O=C([O-])CCCCCCCCC(=O)[O-]	-5.98%
O=C(/C=C/c1ccc(O)c2c1[C@@H](C(=O)O[C@H](Cc1ccc(O)c(O)c1)C(=O)O)[C@H](c1ccc(O)c(O)c1)O2)O[C@H](Cc1ccc(O)c(O)c1)C(=O)O	-2.38%
FC(F)(F)c1ccccc1-c1cc(C(F)(F)F)c2[nH]c(C3=NOC4(CCCCC4)C3)nc2c1	-4.27%
CC(C)CC(NC(=O)C1CCCN1)C(=O)NCC(N)=O (stereo not drawn) (H-Pro-Leu-Gly-NH2; configuration not given here)	-9.44%
Cc1ccc(C)c(C(O)CNC(C)C)c1 (centres unmarked)	8.37%
C(#CCN1CCCC1)CN1CCCC1	7.18%
CCCCOc1ccc(C(=O)CCN2CCCCC2)cc1	4.72%
O=C(O)COc1ccc(C(=O)c2cccs2)c(Cl)c1Cl	-7.59%

Structure (SMILES)	result_ITMP
CC1(C)[C@@H]2C[C@@H](O)[C@@](C)(O)[C@H]1C2	-10.7%
COc1ccc(-c2cc3nccn3c(Nc3ncccc3C(N)=O)n2)cc1OC	2.2%
COc1ccc(CCC(=O)Nc2nc3ccc(Cl)cc3s2)cc1OC	-5.48%
CC[C@@H](C(=O)[C@@H](C)[C@@H](O)[C@H](C)[C@@H]1O[C@@H]([C@@H](CC)C(=O)O)CC[C@@H]1C)[C@H]1O[C@]2(C=C[C@@H](O)[C@]3(CC[C@@](C)([C@H]4CC[C@](O)(CC)[C@H](C)O4)O3)O2)[C@H](C)C[C@@H]1C	13%
O=[N+]([O-])c1cn2c(n1)OC[C@@H](OCc1ccc(OC(F)(F)F)cc1)C2	-1.6%
CCOC(=O)C(C)Oc1cccc2c(=O)n(CC(=O)Nc3ccc4c(c3)OCCO4)ccc12 (centres unmarked)	3.61%
Cn1nnc2c(C(N)=O)ncn2c1=O	2.92%
COc1ccc(CCC(=O)c2c(O)cc(O[C@@H]3O[C@H](CO)[C@@H](O)[C@H](O)[C@H]3O[C@@H]3O[C@@H](C)[C@H](O)[C@@H](O)[C@H]3O)cc2O)cc1O	1.22%
COc1ccccc1OC(=O)C(C)c1ccc(CC(C)C)cc1 (centres unmarked)	-2.36%
NCCCCCc1cnc[nH]1	-0.34%
Cc1ccc(C(=O)Cn2c3c(sc2=N)CCCC3)cc1	-0.53%
CC(C)(C)NC(=O)[C@H]1CC[C@H]2[C@@H]3CC[C@H]4NC(=O)C=C[C@]4(C)[C@H]3CC[C@]12C	-3.73%
C=CC[N+]1([C@H]2C[C@H]3[C@@H]4CC[C@H]5C[C@H](O)[C@@H](N6CCOCC6)C[C@]5(C)[C@H]4CC[C@]3(C)[C@H]2OC(C)=O)CCCC1	-4.38%
Cc1ccc(C(=O)N(CCCN)[C@@H](c2oc3cc(Cl)ccc3c(=O)c2Cc2ccccc2)C(C)C)cc1	92.7%
Cc1cccc(C)c1NC(=O)CN1CCCC1=O	1.22%
CS(=O)(=O)Nc1ccc(Cc2noc(-c3ccc4[nH]cc(CCN)c4c3)n2)cc1	-4.97%
C[C@]12C=CC(=O)C=C1CCC1C2[C@@H](O)C[C@@]2(C)C1CC[C@]2(O)C(=O)COP(=O)([O-])[O-] (some centres unmarked)	-4.14%
NC[C@H]1O[C@H](O[C@H]2C(O[C@@H]3O[C@H](CO)[C@@H](O)[C@H]3O)[C@@H](O)[C@H](N)C[C@@H]2N)[C@H](N)[C@@H](O)[C@@H]1O (some centres unmarked)	-6.92%
OC(Cc1ccncc1)C(Cl)(Cl)Cl (centres unmarked)	2.48%
Nc1nc(N)c2nc(-c3ccccc3)c(N)nc2n1	-1.84%
CCCNC(=O)N1N=C(c2ccc(N)cc2)c2cc3c(cc2C1C)OCO3 (centres unmarked)	-1.71%

Structure (SMILES)	result_ITMP
COc1cc(N)c(Cl)cc1C(=O)OCCN1CCCCC1	-1.25%
Cc1cccc(Cc2c[nH]cn2)c1C	6.08%
Cc1nc2ccc(Oc3ccc(F)cc3)cc2c(=O)n1C[C@H]1CCCN(C(C)C)C1	56.3%
Cc1c(Nc2ncccc2C(=O)O)cccc1C(F)(F)F	-6.08%
COc1ccc(CCO[C@@H]2CCCC[C@H]2N2CC[C@@H](O)C2)cc1OC	-0.1%
CC(ONC(=O)c1cc(C(F)(F)F)cc(C(F)(F)F)c1)C(=O)Nc1ccc(Cl)cc1 (centres unmarked)	-9.45%
OC[C@@H](O)CN1CCN(c2ccccc2)CC1	-4.45%
N#CC1(c2ccc(NC(=O)c3cccnc3NCc3ccncc3)cc2)CCCC1	-4.31%
C[C@H]1[C@H](C)CC[C@]2(C(=O)O)CC[C@]3(C)C(=CC[C@@H]4[C@@]5(C)C[C@@H](O)[C@H](O)C(C)(C)[C@@H]5CC[C@]43C)[C@H]12	-2.32%
O=C1COc2nccc(-c3ccccc3F)c2CN1Cc1cc(C(F)(F)F)cc(C(F)(F)F)c1	1.84%
CN1CCN(C(=O)c2cc3cc(Cl)ccc3[nH]2)CC1	15.2%
CCCN(CC1CC1)c1nc(C)nc(Nc2c(Cl)cc(Cl)cc2Cl)c1Cl	0.31%
Cc1ccc2c(c1)c1c(n2CCc2ccc(C)nc2)CCN(C)C1	30.6%
CS[C@H]1SC[C@H]2C(=O)N(C)[C@@H](C(C)C)C(=O)OC[C@@H](NC(=O)c3cnc4ccccc4n3)C(=O)N[C@@H](C)C(=O)N(C)[C@@H]1C(=O)N(C)[C@@H](C(C)C)C(=O)OC[C@@H](NC(=O)c1cnc3ccccc3n1)C(=O)N[C@@H](C)C(=O)N2C	12.2%
O=C1OC2(c3cc(I)c([O-])c(I)c3Oc3c2cc(I)c([O-])c3I)c2c(Cl)c(Cl)c(Cl)c(Cl)c21	-9.57%
O=C1NC(c2cccc([N+](=O)[O-])c2)=CCN1c1ccccc1O	-5.5%
O=C(O)COc1cccc(CN(Cc2ccc(-n3cccn3)cc2)S(=O)(=O)c2cccnc2)c1	-0.8%
N#CC(C#N)=Cc1ccc(O)c(O)c1	-0.51%
C[C@@]12C[C@@]3(O)O[C@@H](O1)[C@]1(COC(=O)c4ccccc4)[C@H]3C[C@@]12O[C@@H]1O[C@H](CO)[C@@H](O)[C@H](O)[C@H]1O	-5.49%
FC(F)(F)Oc1ccc2nc(-c3ccc(OCCOCCOc4ccc(-c5nc6ccc(OC(F)(F)F)cc6[nH]5)nc4)cn3)[nH]c2c1	-1.49%
